Test results taken from article PMC11835754, “Phospho-tau serine-262 and serine-356 as biomarkers of pre-tangle soluble tau assemblies in Alzheimer’s disease” (Nature Medicine, 2025).

Target: the molecule itself
Assay: SPR; Biacore T100; antibody CT19.1 (epitope aa 331-361) amine-coupled to a CM5 chip to 4,000 RU; truncated tau peptides injected at 20 ul/min in PBS at 25 C; the authors read the signal as the mass of aggregates bound

B1: recombinant STA core peptide (tau […]) (domain or fragment)
chain: not shown
notes: tau, […] of tau441 ([…]); amplified from the tau441 cDNA Origene RC213312; Species from the printed UniProt entry; also called soluble core fragment; source: E. coli BL21 (DE3), purified (Ni-NTA, SUMO protease cleavage, size exclusion where necessary); not shown: His6-SUMO, N-terminal, cleaved
binding result: binds

B2: recombinant fibril core peptide (tau […]) (domain or fragment)
chain: not shown
notes: tau, […] of tau441 ([…]); amplified from the tau441 cDNA Origene RC213312; Species from the printed UniProt entry; also called insoluble core fragment; source: E. coli BL21 (DE3), purified (Ni-NTA, SUMO protease cleavage, size exclusion where necessary); not shown: His6-SUMO, N-terminal, cleaved
binding result: binds
